The record followed here is paper PMC4336329 (PLoS ONE, 2015).

The campaign covered roughly 310,000 compounds. About 2,200 (0.71%) showed an effect of 50% or more. The effect is printed as a negative number. This is one part of the list.

human ether-à-go-go-related gene (hERG) potassium channel, sequence (Q12809 whole entry, looked up): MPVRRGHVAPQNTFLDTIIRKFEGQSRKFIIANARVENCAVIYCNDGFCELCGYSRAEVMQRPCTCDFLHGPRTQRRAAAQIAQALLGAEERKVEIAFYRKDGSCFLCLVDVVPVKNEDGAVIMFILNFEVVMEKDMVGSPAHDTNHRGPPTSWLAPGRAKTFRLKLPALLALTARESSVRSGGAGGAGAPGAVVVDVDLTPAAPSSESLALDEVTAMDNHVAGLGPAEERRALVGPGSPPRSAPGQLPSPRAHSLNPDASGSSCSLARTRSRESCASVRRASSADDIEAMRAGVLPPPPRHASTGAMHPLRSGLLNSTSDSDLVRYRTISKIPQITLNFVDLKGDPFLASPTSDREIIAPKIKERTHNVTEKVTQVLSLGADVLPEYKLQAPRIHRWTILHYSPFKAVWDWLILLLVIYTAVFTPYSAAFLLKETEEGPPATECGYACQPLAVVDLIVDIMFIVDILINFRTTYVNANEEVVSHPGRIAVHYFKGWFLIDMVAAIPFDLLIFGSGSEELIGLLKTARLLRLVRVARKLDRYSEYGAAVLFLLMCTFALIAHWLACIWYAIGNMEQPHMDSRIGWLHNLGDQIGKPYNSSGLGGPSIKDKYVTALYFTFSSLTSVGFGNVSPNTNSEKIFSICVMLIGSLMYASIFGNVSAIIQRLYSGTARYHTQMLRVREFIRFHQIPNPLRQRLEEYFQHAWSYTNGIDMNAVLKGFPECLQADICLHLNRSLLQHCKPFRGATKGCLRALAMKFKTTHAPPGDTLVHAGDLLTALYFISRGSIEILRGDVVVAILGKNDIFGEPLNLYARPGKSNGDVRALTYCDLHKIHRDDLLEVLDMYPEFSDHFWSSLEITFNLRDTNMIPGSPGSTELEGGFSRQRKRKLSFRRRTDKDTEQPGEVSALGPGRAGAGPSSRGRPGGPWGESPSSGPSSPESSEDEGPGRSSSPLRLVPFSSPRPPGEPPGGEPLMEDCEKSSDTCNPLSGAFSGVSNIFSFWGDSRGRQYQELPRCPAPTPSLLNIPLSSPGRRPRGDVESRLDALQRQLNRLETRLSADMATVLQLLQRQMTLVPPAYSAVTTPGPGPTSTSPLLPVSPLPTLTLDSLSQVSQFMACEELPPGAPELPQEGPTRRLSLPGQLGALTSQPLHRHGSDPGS

The experiment addresses human ether-à-go-go-related gene (hERG) potassium channel (human, UniProt Q12809). As to the kind of experiment: primary screen, population patch clamp on CHO cells stably expressing hERG.
`CC1CN(CCCCSc2ccc(Cl)cc2)CC(C)O1.O=C(O)C(=O)O` (stereo not drawn): the “hERG current change (%, negative = inhibition) at 1uM” value is 6.81%.
The value for `COc1ccccc1NC(=O)CSc1nc2ccccc2c(=O)n1CCNC(C)=O` was -14.5%.
The same measure for `CCC(=O)Nc1sc2c(c1C#N)CC(C)(CC)OC2` (stereo not drawn): 17.7%.
The same measure for `CNC(=O)n1ccc(C(=O)N2CCCCC2)n1`: 14.1%.
On to `CCc1nc2n[nH]c(N)c2c2c1CCCC2`, for which the “hERG current change (%, negative = inhibition) at 1uM” value came out at 0.243%.
On to `CCc1nnc(NC(=O)c2ccc(S(=O)(=O)N3CCCCC3C)cc2)s1` (stereo not drawn), for which the “hERG current change (%, negative = inhibition) at 1uM” value came to 14.8%.
As to `Nc1nnc(SC2CC(=O)N(c3ccccc3)C2=O)s1` (stereo not drawn), the “hERG current change (%, negative = inhibition) at 1uM” value stood at 15.3%.
The value for `Cc1ccnc(NC(=O)COc2ccc3oc4c(c3c2)CCCC4)c1` was 4.7%; that for `Cc1ccc(OCCN2CCNCC2)c([N+](=O)[O-])c1.O=C(O)C(=O)O` was 17.4%; that for `O=C(NCCCNc1ccc(C(F)(F)F)cc1[N+](=O)[O-])c1cc(F)c(F)cc1Cl` was 1.62%.
For the molecule `CC(C)(C)C(=O)COC(=O)c1ccc2c(c1)C(=O)N(Cc1ccco1)C2=O`, the “hERG current change (%, negative = inhibition) at 1uM” value was 5.79%.
The same measure for `COc1ccc(C(=O)N2CC3(CC(c4cccc(NC(=O)CC(c5ccccc5)c5ccccc5)c4)=NO3)C[C@H]2C(N)=O)cc1` (stereo partly drawn): 1.05%; for `O=C(O)C/C(=C\c1cc2c(cc1Br)OCO2)c1nc2ccccc2s1`: 4.74%; for `COc1ccc(NC(=O)C(C)N=C2NS(=O)(=O)c3ccccc32)cc1S(N)(=O)=O` (stereo not drawn): 0.659%.
The value for `FC(F)Oc1ccc(NC(=S)NC2CCSc3ccccc32)cc1` (stereo not drawn) was 8.41%; that for `COc1cc(C(=O)N/C(=C\c2cn(C)c3ccccc23)C(=O)N2CCOCC2)cc(OC)c1OC` was 10.3%; that for `COc1ccc(C2C3=C(CC(C)(C)CC3=O)Oc3ncn(CCCn4ccnc4)c(=N)c32)cc1` (stereo not drawn) was 17.9%.
The value for `COc1ccc(CNc2nc3ccccc3n2CCN2CCOCC2)cc1` was -46.5%; that for `Cc1cc(S(=O)(=O)N2CCN=C2c2ccccc2)ccc1F` was 13.9%.
For the molecule `Fc1ccc(Sc2ccccc2CNC2=NCCN2)cc1.I`, the “hERG current change (%, negative = inhibition) at 1uM” value turned out to be 2.54%.
The same measure for `COCCCNC(=O)CN(c1cccc(Cl)c1C)S(C)(=O)=O`: 9.42%; for `Cc1ccc(NC(=O)c2ccc3c(c2)C(=O)N(Cc2cccnc2)C3=O)c(C)c1`: 11.6%; for `Fc1ccc(CNC(=S)NC2CCCCC2)cc1`: 7.78%.
The value for `CCc1ccccc1N1CC23C=CC(O2)C(C(=O)OC)C3C1=O` (stereo not drawn) was 10.5%; that for `O=C(/C=C/c1ccccc1[N+](=O)[O-])NCCCn1ccnc1` was 15.1%; that for `Cn1c(O)c(C=NCCN2CCOCC2)c(=O)n(C)c1=S` was 6.19%.
With `CC(C)=C1Cc2ccccc2C1=O`, the “hERG current change (%, negative = inhibition) at 1uM” value is on record as 11.6%.
The same measure for `CC(C)NS(=O)(=O)c1ccc(OCC(=O)Nc2ccc(F)cc2)cc1`: 5.85%.
Consider `Cc1ccccc1-n1c(C)nc2sccc2c1=O`, for which the “hERG current change (%, negative = inhibition) at 1uM” value was 9.53%.
The same measure for `Cc1ccc(Cn2nnc3c(=O)[nH]c(C4CCN(S(=O)(=O)/C=C/c5ccccc5)CC4)nc32)cc1`: 1.07%.
The value for `O=[N+]([O-])c1ccc(Cl)cc1N1CCCC1` was 16.6%; that for `CC1CC(C)CN(CCCCOc2ccc([N+](=O)[O-])cc2)C1.O=C(O)C(=O)O` (stereo not drawn) was -80.3%.
The value for `COc1ccccc1CC(=O)NNC(=O)c1cccs1` was 10.8%.
Turning to `COc1cc(C#N)c(NS(=O)(=O)c2ccc3[nH]c(=O)sc3c2)cc1OC`, the “hERG current change (%, negative = inhibition) at 1uM” value is given as 18%.
`Cn1cnc(S(=O)(=O)N2CCc3ccccc32)c1`: the “hERG current change (%, negative = inhibition) at 1uM” value is listed as 8.42%.
Regarding `CCN(CC)C(=O)Oc1ccc2ccccc2c1Br`, the “hERG current change (%, negative = inhibition) at 1uM” value came to 12.1%.
The value for `Cc1nc2ccccc2c(=O)n1NC(=O)c1cccnc1Cl` was 22.1%; that for `COCCCNC(=S)Nc1ccccc1[N+](=O)[O-]` was 6%.
The same measure for `Cc1ccc(-n2c(SCC(=O)N3CCCc4ccccc43)nnc2-c2cccnc2)c(C)c1`: 11%; for `Nn1c(SCC(=O)Nc2cc(S(=O)(=O)N3CCOCC3)ccc2Cl)nnc1-c1cccnc1`: 12.1%.
The value for `Cc1ccc(NC(=S)N2CCN(C)CC2)c(C)c1` was 6.58%; that for `CN=c1scc(-c2ccc(Br)cc2)n1C` was -8.31%; that for `COC(=O)c1cc(Cn2nc(C(=O)O)c3ccccc3c2=O)oc1C` was 14.9%.
Turning to `CC(=O)Nc1ccc(Oc2nc(C(F)(F)F)nc3ccccc23)cc1`, the “hERG current change (%, negative = inhibition) at 1uM” value is on record as 17.8%.
The value for `Cc1ccc(S(=O)(=O)N2CCN(C(=O)c3n[nH]c(=O)c4ccccc34)CC2)cc1` was -0.915%.
